A lower IC50 marks a more sensitive line; where the fit passes the top or lowest dose, that dose stands as a limit. AUC sums up the same curve from the lowest dose to the 256-fold higher top dose; the more sensitive the line, the further below 1. Where the top dose is marked as inferred, it was calculated from the reported fits. For some assays here: Drugs with an entry number were screened twice under separate entries, and the two screens often disagree.

Compound in the first assay: NC(=O)c1ccc(N(C(N)=O)c2c(F)cccc2F)nc1-c1ccc(F)cc1F [VX-702]
Briefly: Viability of human cancer cell lines after 72 h of drug (GDSC screen). As to conditions: top dose 2 µM; top dose inferred. As to the method:
(§1)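 Human cancer cell lines in 384-well plates, medium with 10% serum, drug for 72 h over a 256-fold dose range (nine 2-fold or five 4-fold steps up to the top dose). Adherent lines were fixed and stained with the nucleic acid dye Syto60, suspension lines read with resazurin; signal relative to control wells, capped at 0 and 100%. One two-parameter sigmoid per drug and line, fitted in a mixed model over all curves with the slope shared within a line.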
As for DOV13 (ovary, adherent), the AUC was found to be 0.977 and the 50% inhibitory concentration (IC50) (as a rule, the concentration that inhibits the measured activity by half) was more than 2 µM.

In the case of “EMC-BAC-1 (lung adenocarcinoma, adherent)”, the AUC is 0.948 and the IC50 was more than 2 µM.

For the cell line “EMC-BAC-2 (lung adenocarcinoma, adherent)”, the AUC was 0.982 and the IC50 is more than 2 µM.

In the case of “EPLC-272H (lung squamous cell carcinoma, adherent)”, the AUC was determined as 0.983 and the IC50 is more than 2 µM.

As for FLO-1 (oesophagus, adherent), the AUC amounted to 0.956 and the IC50 is more than 2 µM.

Take G-MEL (melanoma, adherent): the AUC came to 0.936 and the IC50 is more than 2 µM.

For the cell line H2722 (mesothelioma, adherent), the AUC is 0.984 and the IC50 was more than 2 µM.

With HSC-4 (head and neck, adherent), the AUC amounted to 0.952 and the IC50 is more than 2 µM.

Consider Hey (ovary, adherent), for which the AUC was 0.978 and the IC50 is more than 2 µM.

In the case of JHOS-2 (ovary, adherent), the AUC worked out at 0.973 and the IC50 was more than 2 µM.

Consider JHOS-3 (ovary, adherent), for which the AUC stood at 0.984 and the IC50 was more than 2 µM.

Take MDA-MB-175-VII (breast, adherent): the AUC came out at 0.988 and the IC50 was more than 2 µM.

Turning to NCC021 (kidney, adherent), the AUC stood at 0.976 and the IC50 is more than 2 µM.

On to “NCI-H292 (lung adenocarcinoma, adherent)”, for which the AUC is 0.957 and the IC50 is more than 2 µM.

Take “NCI-H441 (lung adenocarcinoma, adherent)”: the AUC is 0.976 and the IC50 is more than 2 µM.

On to “NCI-H2122 (lung adenocarcinoma, adherent)”, for which the AUC is 0.989 and the IC50 is more than 2 µM.

Take OACp4C (oesophagus, adherent): the AUC was found to be 0.979 and the 50% inhibitory concentration (IC50) is more than 2 µM.

On to OV-7 (ovary, adherent), for which the AUC is 0.849 and the IC50 was more than 2 µM.

Regarding OV-17R (ovary, adherent), the AUC was found to be 0.98 and the IC50 is more than 2 µM.

OV-56 (ovary, adherent): the AUC turned out to be 0.986 and the half-inhibitory concentration (IC50) was more than 2 µM.

Take OVCA420 (ovary, adherent): the AUC was 0.982 and the IC50 is more than 2 µM.

As for OVCA433 (ovary, adherent), the AUC came to 0.984 and the IC50 was more than 2 µM.

Consider OVK-18 (ovary, adherent), for which the AUC amounted to 0.973 and the IC50 is more than 2 µM.

Turning to PWR-1E (prostate, adherent), the AUC came out at 0.973 and the IC50 is more than 2 µM.

For SCC-4 (head and neck, adherent), the AUC came to 0.983 and the IC50 is more than 2 µM.

For SK-GT-2 (stomach, adherent), the AUC came to 0.973 and the IC50 was more than 2 µM.

In the case of U-2-OS (osteosarcoma, adherent), the AUC is 0.959 and the IC50 was more than 2 µM.

Take UWB1.289 (ovary, adherent): the AUC was 0.98 and the IC50 was more than 2 µM.

On to VMRC-MELG (melanoma, adherent), for which the AUC was 0.987 and the IC50 was more than 2 µM.

WM278 (melanoma, adherent): the AUC came out at 0.982 and the IC50 was more than 2 µM.

Compound in another assay: O=C(c1cc(Cc2n[nH]c(=O)c3ccccc23)ccc1F)N1CCN(C(=O)C2CC2)CC1 [Olaparib]
Described as above. The conditions noted are these: top dose 5 µM; screen: GDSC drug entry 1017; top dose inferred. On the procedure:
as §1
As for A2058 (melanoma, adherent), the AUC was found to be 0.921 and the IC50 is more than 5 µM.

For the cell line ABC-1 (lung adenocarcinoma, adherent), the AUC came to 0.953 and the IC50 was more than 5 µM.

Regarding “DMS-53 (small cell lung carcinoma, adherent)”, the AUC was 0.988 and the IC50 was more than 5 µM.

With DOV13 (ovary, adherent), the AUC came out at 0.984 and the IC50 was more than 5 µM.

Take “EMC-BAC-1 (lung adenocarcinoma, adherent)”: the AUC was 0.981 and the IC50 was more than 5 µM.

“EMC-BAC-2 (lung adenocarcinoma, adherent)”: the AUC amounted to 0.941 and the 50% inhibitory concentration (IC50) was more than 5 µM.

As for “EPLC-272H (lung squamous cell carcinoma, adherent)”, the AUC turned out to be 0.983 and the IC50 is more than 5 µM.

As for FLO-1 (oesophagus, adherent), the AUC was found to be 0.974 and the IC50 was more than 5 µM.

As for G-MEL (melanoma, adherent), the AUC amounted to 0.91 and the IC50 was more than 5 µM.

For H2722 (mesothelioma, adherent), the AUC turned out to be 0.984 and the half-inhibitory concentration (IC50) is more than 5 µM.

HSC-4 (head and neck, adherent): the AUC was 0.957 and the half-inhibitory concentration (IC50) is more than 5 µM.

In the case of Hey (ovary, adherent), the AUC came to 0.961 and the IC50 is more than 5 µM.

In the case of JHOS-2 (ovary, adherent), the AUC worked out at 0.975 and the half-maximal inhibitory concentration (IC50) is more than 5 µM.

JHOS-3 (ovary, adherent): the AUC was determined as 0.984 and the IC50 was more than 5 µM.

Turning to MDA-MB-175-VII (breast, adherent), the AUC was determined as 0.988 and the IC50 is more than 5 µM.

On to NCC021 (kidney, adherent), for which the AUC turned out to be 0.966 and the IC50 was more than 5 µM.

As to “NCI-H292 (lung adenocarcinoma, adherent)”, the AUC came out at 0.913 and the IC50 was more than 5 µM.

Regarding OACp4C (oesophagus, adherent), the AUC worked out at 0.976 and the IC50 was more than 5 µM.

Turning to OV-7 (ovary, adherent), the AUC was determined as 0.871 and the IC50 was more than 5 µM.

On to OV-17R (ovary, adherent), for which the AUC was determined as 0.977 and the IC50 was more than 5 µM.

With OV-56 (ovary, adherent), the AUC turned out to be 0.968 and the IC50 was more than 5 µM.

As to OVCA420 (ovary, adherent), the AUC amounted to 0.982 and the IC50 is more than 5 µM.

For the cell line OVCA433 (ovary, adherent), the AUC is 0.979 and the IC50 was more than 5 µM.

Turning to OVK-18 (ovary, adherent), the AUC worked out at 0.858 and the IC50 came to 4.85 µM.

Take PWR-1E (prostate, adherent): the AUC was 0.926 and the IC50 was more than 5 µM.

Regarding SCC-4 (head and neck, adherent), the AUC came out at 0.945 and the 50% inhibitory concentration (IC50) is more than 5 µM.

Take SK-GT-2 (stomach, adherent): the AUC stood at 0.965 and the IC50 was more than 5 µM.

For U-2-OS (osteosarcoma, adherent), the AUC was found to be 0.98 and the half-maximal inhibitory concentration (IC50) was more than 5 µM.

As to VMRC-MELG (melanoma, adherent), the AUC amounted to 0.984 and the IC50 was more than 5 µM.

With WM278 (melanoma, adherent), the AUC was found to be 0.965 and the IC50 was more than 5 µM.

The same assay, now with this note: top dose 10 µM; screen: GDSC drug entry 1495.
On to ABC-1 (lung adenocarcinoma, adherent), for which the AUC was 0.964 and the half-inhibitory concentration (IC50) is more than 10 µM.

As to “DMS-53 (small cell lung carcinoma, adherent)”, the AUC stood at 0.966 and the IC50 is more than 10 µM.

With DOV13 (ovary, adherent), the AUC stood at 0.947 and the IC50 is more than 10 µM.

“EMC-BAC-1 (lung adenocarcinoma, adherent)”: the AUC was found to be 0.962 and the IC50 is more than 10 µM.

The values above are taken from the supplement of paper PMC4967469.
